# Test results reported in the supplement of paper PMC11417369.
# The other results are listed elsewhere or left out.
# Tested on: PF3D7_0420300 AP2 domain 1 (GST-tagged)
# Assay: gcPBM binding intensity (ln(normalized median fluorescence intensity)); higher = stronger DNA binding
# Method in brief: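 Alexa488 anti-GST antibody, scanned at 488 nm, detected GST-tagged P. falciparum DNA-binding domains that had been expressed in E. coli and incubated for 1 h on an Agilent 4 × 180k array. The array carried primer-extended double-stranded 36-bp intergenic genomic probes and negative controls. Binding intensity is the highest Masliner-normalised natural-log median intensity across replicate spots of either orientation of each probe.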
row,Sequence,gcPBM binding intensity (ln)
1,GACATATATACCAAACGTACATATGTGCAAGCATAA [XGTACX_site3089],9.17
2,TTGGCTATAGCCAATTGTACTTTTTCTCTTTGGCTT [XGTACX_site1119],9.08
3,CATATAATAAATAATTGTACTTGATATAATATTATG [XGTACX_site3562],9.12
4,ATAAATTATAATAACTGTACAAAAATAATATATTCA [XGTACX_site1856],9.25
5,TATATAATTATTTTTTGTACTCATAATAATATGAAA [XGTACX_site289],8.82
6,AATAATAATAAAAAGGTGCTGAAATATTTTTATTAT [GTGCAC_site9763],9.38
7,ATATGTACAAAATAAGCACACACAAAAAAAAAAAAA [CACACA_site8984],9.69
8,AAAAAAAAAAAAAATATATATATATATATATATATA [CACACA_negctrl_site540],9.31
9,TTTTTTTTTTTTTTTTGTACATAAATTTTTATTAGA [XGTACX_site6409],8.77
10,AATAATAATGCTTTAACTTTGTTGTTATTTAGAATA [CACACA_negctrl_site1144],9.02
11,TATAAATAAAAGTGTACACACATTAAAATCAAACGT [CACACA_site5316],9.85
12,TTTGTATTACGTTTGTGTACATATACAATGTGTTTT [XGTACX_site7708],9.3
13,CATACATATATACATACACACACATATAACCAATGT [CACACA_site8679],9.98
14,TTTATTTATTTATGGACACACATACAAATCTTCCAG [CACACA_site4676],9.23
15,TCCATGCATTGACACACACACAAAAAAAAATTCTTT [CACACA_site7847],9.57
16,ATAAAAATATTTATTACACACATAAGCAAAAAAAAA [CACACA_site3484],9.68
17,TATAATGATGATGATAGTACGTATGAGTAAGAAAAA [XGTACX_site31],9.44
18,TATTTTTATTTTTAAACCATATATATATATATATAT [CACACA_negctrl_site1560],9.11
19,TATAGTTTCATTCTTTGTACATATATATTATTATTA [XGTACX_site8527],9.43
20,AGATTTATTCATTCATGTACTTATTTATTTTATTTT [XGTACX_site6702],9.49
21,AATGTGCAAACAAACTGTACTTTTTTTTTTTTTTTT [XGTACX_site928],9.22
22,TAAGTTTTGTTCTTTTGTACATATAAGTATAGATCG [XGTACX_site4735],8.99
23,AATGTTTTTGTGAGATGTATAAATTTTATTTTATTT [XGTACX_negctrl_site413],9.24

row,Sequence,gcPBM binding intensity (ln)
1,AAAAAAATAATGTACACACACATATAGGTTTATATA [CACACA_site192],9.77
2,AAACGTGTGTATAATAGTACATAATTATAACGTAAT [XGTACX_site421],9.6
3,CGTATTTTTGGACATGCATGTACAAATAATCTTATG [TGCATGCA_site973],9.08
4,AAATTTGGCAAACACACACACACACCCACAGAGACA [CACACA_site4490],10.3
5,ATATATGGAGCTTATACACACTTTTATATTTTAACA [CACACA_site7757],9.57
6,TTGGGCATAATGTCATGTACACAAATAATTCTTTAT [XGTACX_site861],9.09
7,TTAAAATTATAATACGTACACACCTTATCTTTTTGG [CACACA_site278],9.39
8,TGTTGTTTTATGTTGTATTGTAATATATTATATTAT [XGTACX_negctrl_site46],9.77
9,GGCGTATGTGTATATACACACCCACGTATATATATA [CACACA_site9046],9.5
10,ATATATAACGGGCACACACACATTTACGTATGAATA [CACACA_site1833],9.97
11,TTAGGATTGAAGAGTTGTACATACCTCTTATTTGTT [XGTACX_site1376],9.32
12,TATAAAATGTAATCTGAACACACATATTTTTTTAAT [CACACA_site8521],9.3
13,ATCATATATTATTTATGTACTTATTTATAATAATAT [XGTACX_site8257],9.28
14,TTTATTTATTATTATGTACACACTATATTAAAACAT [CACACA_site700],9.37
15,TTATAATAAATATTCATATGTTCAAATATATATATA [CACACA_negctrl_site624],8.93
16,AAATATATTTCTTTTTTTCTTATTATTAATTTGCTT [CACACA_negctrl_site1483],9.2
17,TATAGATTTATATACACATGCATTTTGGTAAAGAAA [TGCATGCA_site953],9.12
18,TATTTTTTTAATAACTGTACTTTTTTGTCAAATGGA [XGTACX_site4179],8.9
19,ATTGTAAGTAGACACACACACATATAGATGTATATA [CACACA_site6463],9.83
20,ATTCATAATTTATTATGTACATATATATAATATATT [XGTACX_site1711],9.15
21,AAATAACAAATTTTTAAAATGTATATATATATATAT [TGCATGCA_negctrl_site219],8.94
22,AAGGATATAACATACACACACACACCCATATATATA [CACACA_site4142],10.3
23,AAAGAAATTATTTGTTGTACATATGTTATTTTTTTT [XGTACX_site7570],9.36

row,Sequence,gcPBM binding intensity (ln)
1,TGCAATTTAATATGAGTGCATATATTGAGAAAATAC,9.19
2,TAAAACCTTTAAAATACATGCAGCATATATAAGTAA [TGCATGCA_site181],9.1
3,ATATCATGTTAAGATTGTACATATATATAATATATA [XGTACX_site7626],9.11
4,AATAAATTGGTATGTTGTACAAAGTAACCATCGATT [XGTACX_site2823],9.22
5,GGAAAATATGTTTGTGTGCACAGCTAGCTATTTGTA [GTGCAC_site9637],9.54
6,CACCCACACCAACACACACACATATATATATATATA [CACACA_site362],10.1
7,AATTTTTTTTGTCTCTGTACTTATAAAATATATATG [XGTACX_site4742],9.38
8,TTTTTTTTTTTCAAGCGTACAAAAAATATATTTAAA [XGTACX_site5327],8.74
9,AAATAAATTGATTCAACACACACATATGTAGGAAGT [CACACA_site9068],9.91
10,AAAAAAAATTTTAATTGTACAAAAAAAAAAAATATA [XGTACX_site2259],8.91
11,TATATATGGGTAACCTTTTTTTTTTTTTTTCGAACA [CACACA_negctrl_site1303],8.94
12,TTATTTTTTTTAAATTGTACAAGGAACAGTGAAAAA [XGTACX_site4380],9.1
13,TTTGTGTGTACGCGTGTGCACATTTTTTTTTTTTTT,9.51
14,TATATAACCTATAGCACACATATATAATATATATTA [CACACA_site1834],9.32
15,TTCTATTCAAATGCAAAATTATTAAATAAAAAATAA [GTGCAC_negctrl_site708],8.95
16,ATTATTACATTTTTATGTACATATCAAATTTATACA [XGTACX_site7332],9.13
17,TTAACTTAAGGAGAGTGTACAAATAATAAAATATCT [XGTACX_site4118],9.28
18,TTAAAATATGAATAATGTACAAGAAATTTTATTAAT [XGTACX_site6314],9.15
19,TCACTTAATATTTAATGTACATAAGGTTCTTGTGCC [XGTACX_site1822],8.93
20,TATAAATTAAAATGTGTGCACTAAATTGAAATAGAA,9.5
21,ATATATATATATAATAGTACATATATTTTTATTGGT [XGTACX_site711],9.22
22,TAACCTAAAATAACTACACACACATAAAAAAAAAAA [CACACA_site8807],10.1
23,ATATTTTTTACAAATTGTACATTTTTACAATTATTA [XGTACX_site7496],9.18

row,Sequence,gcPBM binding intensity (ln)
1,TTATATAACATTATTTGTACATATAAAATATGGATG [XGTACX_site8526],9
2,AAAAAAAATTTATGGGGTACATATTATAATATTATA [XGTACX_site3395],9.17
3,GTAGTGGTTGAATATACACACATATATAAATAAATA [CACACA_site7282],9.5
4,GTTTTCATCCAAAAAAGTACATTTATTTTTATACGA [XGTACX_site1039],9.03
5,ATGTATGAATTACATAGTACATAAGAAAAAATGAAG [XGTACX_site5942],9.46
6,GGAAAATCTTTATAATGTACATTATGATTATATAAT [XGTACX_site6256],9.23
7,AAATATAAAGTGCACACACACAAAAAAAGAAAAAAA [CACACA_site6452],9.97
8,AAAAAAAAAAAAAAAACACACATAAAAATATAATAA [CACACA_site3855],9.53
9,ATTATATATAATATAGTGCATGTAAAAAATAAAACA,9.48
10,AAGAATATTATAAACACACACTTTATAAAGAATTAT [CACACA_site4241],9.63
11,TATATAATTGTCTTCACACACACATATATATATATA [CACACA_site2744],9.94
12,TATTTTATTTGTATATTCATTTGTATAATATAAATA [TGCATGCA_negctrl_site267],9.16
13,AAATGTAATATAAATAGTACATATTAAATAAAATTA [XGTACX_site6917],9.21
14,ATGTGCACATATAAAAGTACACGCACATATATATAT [XGTACX_site1238],9.24
15,TGCACAAAGTTATGCACACACCTAAAATTAATTTTT [CACACA_site7385],9.45
16,TTATAATATGTATACACACACATATATAGATATATA [CACACA_site7159],9.49
17,GTACATAGGTATAGCACACACAAATGTAGGTATTTT [CACACA_site4049],9.65
18,ATTCTTTATATGCATACACACCTAATATAGGGACCT [CACACA_site6830],9.42
19,ACTTTAGAAATAGAGGTGCTATTTTTATTACCACAC,9.27
20,AAAAATTTATTTAAAAGTACATAAAATAAAGGTGGA [XGTACX_site7591],9.42
